# Results as given in the supplement of paper PMC8728848.
# Some of the results follow.
# B1: Ficolin A (Rattus norvegicus), Q9WTS8 (protein)
# chain: MWWPMLWAFPVLLCLCSSQALGQESGACPDVKIVGLGAQDKVAVIQSCPSFPGPPGPKGEPGSPAGRGERGLQGSPGKMGPPGSKGEPGTMGPPGVKGEKGERGTASPLGQKELGDALCRRGPRSCKDLLTRGIFLTGWYTIYLPDCRPLTVLCDMDVDGGGWTVFQRRVDGSINFYRDWDSYKRGFGNLGTEFWLGNDYLHLLTANGNQELRVDLREFQGQTSFAKYSSFQVSGEQEKYKLTLGQFLEGTAGDSLTKHNNMAFSTHDQDNDTNGGKNCAALFHGAWWYHDCHQSNLNGRYLPGSHESYADGINWLSGRGHRYSYKVAEMKIRAS
# Assays:
# Test in all cases: glycan array binding signal (z-score within array); higher = stronger binding
# Conditions in all cases: glycan notation: IUPAC condensed, linker removed
# [1] = target: Gal(b1-3)[Fuc(a1-4)]GlcNAc(b1-3)Gal(b1-4)[Fuc(a1-3)]GlcNAc
# In short: (§1)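 Negative Z-scores can be read as non-binding. The Z-score is calculated within each array and then averaged across arrays of one protein sequence at different concentrations or buffers and across linkers. Arrays, 3228 in all, were curated from the Consortium for Functional Glycomics database and kept only where the protein sequence was available.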
# [2] = target: Gal(b1-3)[GlcNAc(b1-6)]GalNAc
# In short: as §1
# [3] = target: Gal(b1-3)[Neu5Ac(a2-6)]GalNAc
# In short: as §1
# [4] = target: Gal(b1-3)[Neu5Ac(a2-6)]GlcNAc(b1-6)Gal(b1-4)Glc
# In short: as §1
# [5] = target: Gal(b1-3)[Neu5Ac(b2-6)]GalNAc
# In short: as §1
# [6] = target: Gal(b1-4)GalNAc(a1-3)[Fuc(a1-2)]Gal(b1-4)GlcNAc
# In short: as §1
# [7] = target: Gal(b1-4)GalNAc(b1-3)[Fuc(a1-2)]Gal(b1-4)GlcNAc
# In short: as §1
# Gal(b1-4)Glc = target: Gal(b1-4)Glc
# In short: as §1
# Gal(b1-4)Glc6S = target: Gal(b1-4)Glc6S
# In short: as §1
# Gal(b1-4)GlcNAc = target: Gal(b1-4)GlcNAc
# In short: as §1
# [8] = target: Gal(b1-4)GlcNAc(a1-6)Gal(b1-4)GlcNAc
# In short: as §1
# [9] = target: Gal(b1-4)GlcNAc(b1-2)Man(a1-3)[Gal(b1-4)GlcNAc(b1-2)Man(a1-6)]Man(b1-4)GlcNAc(b1-4)GlcNAc
# In short: as §1
# [10] = target: Gal(b1-4)GlcNAc(b1-3)Gal(b1-3)GlcNAc
# In short: as §1
# [11] = target: Gal(b1-4)GlcNAc(b1-3)Gal(b1-4)Glc
# In short: as §1
# [12] = target: Gal(b1-4)GlcNAc(b1-3)Gal(b1-4)GlcNAc
# In short: as §1
# [13] = target: Gal(b1-4)GlcNAc(b1-3)Gal(b1-4)GlcNAc(b1-3)Gal(b1-4)GlcNAc
# In short: as §1
# [14] = target: Gal(b1-4)GlcNAc(b1-3)Gal(b1-4)[Fuc(a1-3)]GlcNAc(b1-3)Gal(b1-4)[Fuc(a1-3)]GlcNAc
# In short: as §1
# [15] = target: Gal(b1-4)GlcNAc(b1-3)GalNAc
# In short: as §1
# [16] = target: Gal(b1-4)GlcNAc(b1-3)[Gal(b1-4)GlcNAc(b1-6)]Gal(b1-4)GlcNAc
# In short: as §1
# [17] = target: Gal(b1-4)GlcNAc(b1-3)[GlcNAc(b1-6)]Gal(b1-4)GlcNAc
# In short: as §1
# [18] = target: Gal(b1-4)GlcNAc(b1-6)Gal(b1-4)GlcNAc
# In short: as §1
# [19] = target: Gal(b1-4)GlcNAc(b1-6)Gal(b1-4)GlcNAc(b1-6)GalNAc
# In short: as §1
# [20] = target: Gal(b1-4)GlcNAc(b1-6)GalNAc
# In short: as §1
# [21] = target: Gal(b1-4)GlcNAc(b1-6)[Gal(b1-3)]GalNAc
# In short: as §1
# Gal3S(b1-3)GalNAc = target: Gal3S(b1-3)GalNAc
# In short: as §1
# Gal3S(b1-3)GlcNAc = target: Gal3S(b1-3)GlcNAc
# In short: as §1
# [22] = target: Gal3S(b1-3)[Fuc(a1-4)]GlcNAc
# In short: as §1
# Gal3S(b1-4)Glc = target: Gal3S(b1-4)Glc
# In short: as §1
# Gal3S(b1-4)Glc6S = target: Gal3S(b1-4)Glc6S
# In short: as §1
# Gal3S(b1-4)GlcNAc = target: Gal3S(b1-4)GlcNAc
# In short: as §1
# Gal3S(b1-4)GlcNAc6S = target: Gal3S(b1-4)GlcNAc6S
# In short: as §1
# [23] = target: Gal3S(b1-4)[Fuc(a1-3)]Glc
# In short: as §1
# Gal3S4S(b1-4)GlcNAc = target: Gal3S4S(b1-4)GlcNAc
# In short: as §1
# Gal3S6S(b1-4)GlcNAc = target: Gal3S6S(b1-4)GlcNAc
# In short: as §1
# Gal3S6S(b1-4)GlcNAc6S = target: Gal3S6S(b1-4)GlcNAc6S
# In short: as §1
# Gal4S(b1-4)GlcNAc = target: Gal4S(b1-4)GlcNAc
# In short: as §1
# Gal4S6S(b1-4)GlcNAc = target: Gal4S6S(b1-4)GlcNAc
# In short: as §1
binder,measurement,setting,value
B1,glycan array binding signal (z-score),[1],-0.113
same,glycan array binding signal (z-score),[2],-0.108
same,glycan array binding signal (z-score),[3],-0.123
same,glycan array binding signal (z-score),[4],-0.085
same,glycan array binding signal (z-score),[5],-0.093
same,glycan array binding signal (z-score),[6],-0.03
same,glycan array binding signal (z-score),[7],-0.087
same,glycan array binding signal (z-score),Gal(b1-4)Glc,-0.013
same,glycan array binding signal (z-score),Gal(b1-4)Glc6S,-0.092
same,glycan array binding signal (z-score),Gal(b1-4)GlcNAc,-0.1
same,glycan array binding signal (z-score),[8],-0.095
same,glycan array binding signal (z-score),[9],-0.116
same,glycan array binding signal (z-score),[10],-0.104
same,glycan array binding signal (z-score),[11],-0.081
same,glycan array binding signal (z-score),[12],0.135
same,glycan array binding signal (z-score),[13],-0.093
same,glycan array binding signal (z-score),[14],-0.029
same,glycan array binding signal (z-score),[15],-0.093
same,glycan array binding signal (z-score),[16],-0.045
same,glycan array binding signal (z-score),[17],-0.089
same,glycan array binding signal (z-score),[18],-0.106
same,glycan array binding signal (z-score),[19],-0.087
same,glycan array binding signal (z-score),[20],-0.095
same,glycan array binding signal (z-score),[21],-0.102
same,glycan array binding signal (z-score),Gal3S(b1-3)GalNAc,-0.085
same,glycan array binding signal (z-score),Gal3S(b1-3)GlcNAc,-0.038
same,glycan array binding signal (z-score),[22],-0.067
same,glycan array binding signal (z-score),Gal3S(b1-4)Glc,-0.121
same,glycan array binding signal (z-score),Gal3S(b1-4)Glc6S,-0.014
same,glycan array binding signal (z-score),Gal3S(b1-4)GlcNAc,-0.099
same,glycan array binding signal (z-score),Gal3S(b1-4)GlcNAc6S,-0.062
same,glycan array binding signal (z-score),[23],0.001
same,glycan array binding signal (z-score),Gal3S4S(b1-4)GlcNAc,-0.103
same,glycan array binding signal (z-score),Gal3S6S(b1-4)GlcNAc,-0.117
same,glycan array binding signal (z-score),Gal3S6S(b1-4)GlcNAc6S,-0.124
same,glycan array binding signal (z-score),Gal4S(b1-4)GlcNAc,-0.049
same,glycan array binding signal (z-score),Gal4S6S(b1-4)GlcNAc,-0.105
